From patent US20100113379A1, “cAMP DEPENDENT INDUCTION OF AUTOPHAGY” (priority 2007, published 2010)

Columns and labels:
LC3-II = assay: Endogenous LC3-II levels in PC12 cells (anti-LC3 immunoblot); assay type: cell-based; conditions: 24 h
Source text: When autophagy is induced, the microtubule-associated protein 1 light chain 3 (LC3) is processed post-translationally into LC3-I, and then to LC3-II, which associates with autophagosome membranes (5). Quantification of the number of cells with LC3-positive vesicles or LC3-II levels (versus actin) allows for a specific and sensitive assessment of autophagosome number in large numbers of cells (17).
Samples were subjected to SDS-polyacrylamide gel electrophoresis and proteins were transferred to nitrocellulose membranes (Amersham Pharmacia Biotech). […] Blots were probed with anti-mouse or anti-rabbit IgG-HRP (Amersham) and visualised using ECL or ECL Plus detection kit (Amersham).

[1] = test system: knockout (KO) Atg5 mouse embryonic fibroblasts (MEFs) transfected with EGFP-HDQ74; assay: EGFP-HDQ74 aggregates in Atg5 knockout mouse embryonic fibroblasts; conditions: 1 μM, 48 h; FIG. 5
[2] = test system: wild type (WT) Atg5 mouse embryonic fibroblasts (MEFs) transfected with EGFP-HDQ74; assay: EGFP-HDQ74 aggregates in wild-type Atg5 mouse embryonic fibroblasts; conditions: 1 μM, 48 h; FIG. 5
[3] = test system: SK-N-SH cells transfected with EGFP-HDQ74; assay: EGFP-HDQ74 aggregate formation and cell death in transfected SK-N-SH cells (odds ratio)
[4] = test system: COS-7 cells transfected with EGFP-HDQ74; assay: EGFP-HDQ74 aggregate formation in transfected COS-7 cells (odds ratio); conditions: 500 μM 2′5′ ddA, 1 mM db-cAMP, 24 μM forskolin, 48 hr post-transfection, FIG. 6
[5] = 1 μM, 48 h post-transfection, FIG. 3
[6] = 1 μM rilmenidine or 500 μM 2′5′ ddA, FIG. 7

Compound	LC3-II levels (LC3-II; 1 μM, FIG. 4)	huntingtin (EGFP-HDQ74) aggregation in autophagy-deficient MEFs (Atg5−/−) [1]	huntingtin (EGFP-HDQ74) aggregation in wild-type MEFs (Atg5+/+) [2]	further results
Clc1cccc(Cl)c1NC1=NCCN1 [clonidine, N-(2,6-dichlorophenyl)-4,5-dihydro-1H-imidazol-2-amine]	increased	no effects	mirrored that in SK-N-SH cells	EGFP-HDQ74 aggregation [3, 5]: reduced; EGFP-HDQ74 toxicity (cell death) [3, 5]: reduced
C1COC(NC(C2CC2)C2CC2)=N1 [rilmenidine, 2-[N-(Dicyclopropylmethyl)amino]oxazoline hemifuramate]	–	–	–	LC3-II levels (LC3-II; [6]): increased; EGFP-HDQ74 aggregation ([3]; 1 μM rilmenidine, 48 hr post-transfection, FIG. 6): decrease
Nc1cc(N2CCCCC2)nc(N)[n+]1[O-] [minoxidil, 6-(1-Piperidinyl)-2,4-pyrimidinediamine 3-oxide]	increased	no effects	mirrored that in SK-N-SH cells	–
C[C@H]1O[C@@H](n2cnc3c(N)ncnc32)C[C@@H]1O [2′5′ddA, 2′5′-dideoxyadenosine]	–	–	–	LC3-II levels (LC3-II; [6]): increased; EGFP-HDQ74 aggregation [4]: decreased
COc1ccc(CCN(C)CCCC(C#N)(c2ccc(OC)c(OC)c2)C(C)C)cc1OC (stereo not shown) [verapamil]	increased	no effects	mirrored that in SK-N-SH cells	–
CCCC(=O)Nc1ncnc2c1ncn2[C@@H]1O[C@@H]2COP(=O)(O)O[C@H]2[C@H]1OC(=O)CCC [dibutyryl cAMP, N^6,2-O-Dibutyryl-cAMP]	–	–	–	EGFP-HDQ74 aggregation [4]: opposite effects
COC(=O)C1=C(C)NC(C)=C([N+](=O)[O-])C1c1ccccc1C(F)(F)F (racemic) [(±)-Bay K8644]	–	no effects	mirrored that in SK-N-SH cells	EGFP-HDQ74 aggregation [3, 5]: opposite effects
